# Experimental data taken from PubChem BioAssay AID1345083 (National Center for Advancing Translational Sciences (NCATS), 2018).
# Among all 94,000 compounds or so, about 6,200 (6.6%) were called active. Inconclusive means that the source gave no clear call. Such entries were picked first, then a sample of the others. The call rests on the fitted dose curve; in most records, active means well fitted inhibition curve with a large enough effect; inconclusive means small, poorly fitted or top-dose-only effect; inactive means flat fitted curve, though single readings scatter. Potencies beside an inconclusive call are fits to weak or partial responses and may not hold up.
# Assay: Cytotoxic Profiling in HEK 293 Cell Line of Diverse Libraries Using Quantitative High-Throughput Screening; further: nearly all actives have a fitted effect of over 60% in size
# Conditions: HEK 293 viability, ATP luminescence (CellTiter-Glo), 48-72 h; series mostly up to 115 µM
# Summary of the method: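 Viability of HEK 293 cells, plated at 250 cells/well, was judged by cellular ATP after compound treatment for 48 or 72 hr. Luminescence was imaged 10 min after CellTiter-Glo addition at room temperature.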
# Potency means the concentration at half of the fitted maximal effect; tags describe the fitted curve by direction and shape.
row,Structure (SMILES),Potency
1,C#C[C@H]1CN2CC[C@H]1C[C@@H]2COC(=O)Nc1ccc(Br)cc1,"inconclusive: 126 µM [inhibitor, single point]"
2,Cc1nc(-c2ccc(F)cc2)cc([C@H]2CN3CC[C@H]2C[C@@H]3CNC(=O)c2ccco2)n1,"inconclusive: 89.1 µM [inhibitor, partial curve, poor fit]"
3,Cc1ncc2c(n1)C[C@@H]1CC[C@H]2N1S(=O)(=O)c1c(C)noc1C,inactive
4,COc1ccc(-c2cn(C[C@H]3C[C@@H]4CCN3C[C@@H]4C(=O)NC3CC3)nn2)cc1,inactive
5,COc1cc2c(cc1OCC1CC1)NC(=O)C21CCN(C(=O)C2CCC2)CC1,"inconclusive: 100 µM [inhibitor, partial curve]"
6,CSc1nccc(N2CCC3(CCCN(CC4CC4)C3)C2)n1 (centres undefined),inactive
7,CCCn1c(C)cnc1CCNC(=O)c1nn(C)c2ccccc12,"inconclusive: 89.1 µM [inhibitor, single point]"
8,Cn1cccc1CN1CCC2(CN[S+](=O)([O-])c3cccnc3O2)C1 (centres undefined),inactive
9,CC(C)(C)c1ccc(-c2cn(C[C@H]3CC4CCN3C[C@@H]4C(=O)Nc3ccccc3)nn2)cc1 (some centres undefined),active: 28.2 µM
10,O=C1NC[C@H]2CN(Cc3cccs3)CCN12,inactive
11,C=CCN(C)C[C@H]1CN2CC[C@H]1C[C@@H]2CNC(=O)Nc1cccc(SC)c1,active: 63.1 µM
12,Cc1nc(-c2ccccc2Br)cc([C@H]2CN3CC[C@H]2C[C@@H]3CNC(=O)c2cccs2)n1,active: 79.4 µM
13,CCCNC(=O)OC[C@H]1C[C@@H]2CCN1C[C@@H]2c1cc(-c2ccc3ccccc3c2)nn1C,active: 63.1 µM
14,COc1ccc(-c2cn(C[C@H]3CC4CCN3C[C@@H]4C(=O)NC3CCCCC3)nn2)cc1 (some centres undefined),inactive
15,COc1cc2c(cc1OCC1CC1)NC(=O)C21CCN(c2ccnc(C)n2)CC1,active: 79.4 µM
16,Cc1noc(C)c1Cc1ccc(C(=O)N2[C@H]3CC[C@@H]2c2cnc(-c4ccccc4)nc2C3)o1,active: 39.8 µM
17,CC(C)(CC(=O)O)CC(=O)N1C[C@@H]2C[C@H](C1)c1ccc(-c3cccc(C#N)c3)c(=O)n1C2,inactive
18,C=CCN(C)C(=O)[C@H]1CN2CCC1C[C@@H]2Cn1cc(CO)nn1 (some centres undefined),"inconclusive: 126 µM [inhibitor, partial curve, poor fit]"
19,O=C(Cc1ccc(Cl)cc1)N1Cc2ccccc2CC2(CCCN2CC2CCNC2)C1 (centres undefined),active: 28.2 µM
20,Cn1nc(-c2ccc3ccccc3c2)cc1[C@H]1CN2CC[C@H]1C[C@@H]2COC(=O)Nc1ccccc1,active: 20 µM
21,Cc1cccc(OCC(=O)N2[C@H]3CC[C@@H]2c2cnc(C)nc2C3)c1,inactive
22,Cc1cc(CN2CC3(C2)C(=O)Nc2ccccc23)no1,"inconclusive: 126 µM [inhibitor, single point]"
23,COc1cc2c(cc1OCc1ccccc1)N(C(=O)C1CCC(C)CC1)CC21CCN(C)CC1 (centres undefined),active: 28.2 µM
24,CC(C)CCN1CCC2(CNS(=O)(=O)c3cccnc3O2)C1 (centres undefined),inactive
